A short description of this data set: xn = mol fraction of the nth substance listed. The settings on record: 101 kPa.

Some of these densities may be calculated back from excess volumes.

Take `CC[n+]1ccn(C)c1.O=S(=O)([N-]S(=O)(=O)C(F)(F)F)C(F)(F)F` + CC#N: the mass density is, setting by setting: (303.02 K, x2 = 0) 1513.7 kg/m3; (303.02 K, x2 = 0.1024) 1498.2 kg/m3; (303.02 K, x2 = 0.2554) 1467.9 kg/m3; (303.02 K, x2 = 0.4878) 1397.3 kg/m3; (303.02 K, x2 = 0.5514) 1369.2 kg/m3; (303.02 K, x2 = 0.7615) 1224.6 kg/m3. Besides, the mass density reads like this: (303.02 K, x2 = 0.9441) 939.1 kg/m3; (322.41 K, x2 = 0) 1494.2 kg/m3; (322.41 K, x2 = 0.2243) 1456.5 kg/m3; (322.41 K, x2 = 0.4481) 1394.2 kg/m3; (322.41 K, x2 = 0.5104) 1369.7 kg/m3; (322.41 K, x2 = 0.585) 1333.9 kg/m3. The same molecule gave a mass density (322.41 K, x2 = 0.8367) of 1116.5 kg/m3.
Take `CC#N` + CC[n+]1ccn(C)c1.O=S(=O)([N-]S(=O)(=O)C(F)(F)F)C(F)(F)F: the mass density reads like this: (303.02 K, x1 = 1) 771.3 kg/m3; (322.41 K, x1 = 1) 750 kg/m3.

For orientation: mass density means mass per unit of volume.

Source of the values: a compilation of properties of binary mixtures (doi:10.1021/ie0605377).
